Data: patent publication US20160297830A1, “NOVEL COMPOUNDS USEFUL FOR THE TREATMENT OF BACTERIAL INFECTIOUS DISEASES” (GALAPAGOS NV, priority 2013, published 2016)

Legend:
Assay type in all cases: cell-based
[1] = test system: H. influenza Hi3 ATCC 31517; settings: H. influenza Hi3 ATCC 31517, sensitive strain
[2] = test system: H. influenza Hi10 clinical strain; settings: sensitive
[3] = test system: H. influenza Hi106 ATCC 51907; settings: H. influenza Hi106 ATCC 51907, sensitive strain

8-O-4-Bromo-5-Chloro-1H-pyrrole-2′-carbonylbranimycin [Compound 35]
>64 µg/mL: MIC Hi3 [1] | MIC Hi10 [2] | MIC Hi106 [3]
